Among all 310,000 compounds or so, about 2,200 (0.71%) showed an effect of 50% or more. The effect is printed as a negative number. Some of the results follow.
The compounds below were run against human ether-à-go-go-related gene (hERG) potassium channel (human, UniProt Q12809) (assay: primary screen, population patch clamp on CHO cells stably expressing hERG).
human ether-à-go-go-related gene (hERG) potassium channel, sequence (Q12809 whole entry, looked up): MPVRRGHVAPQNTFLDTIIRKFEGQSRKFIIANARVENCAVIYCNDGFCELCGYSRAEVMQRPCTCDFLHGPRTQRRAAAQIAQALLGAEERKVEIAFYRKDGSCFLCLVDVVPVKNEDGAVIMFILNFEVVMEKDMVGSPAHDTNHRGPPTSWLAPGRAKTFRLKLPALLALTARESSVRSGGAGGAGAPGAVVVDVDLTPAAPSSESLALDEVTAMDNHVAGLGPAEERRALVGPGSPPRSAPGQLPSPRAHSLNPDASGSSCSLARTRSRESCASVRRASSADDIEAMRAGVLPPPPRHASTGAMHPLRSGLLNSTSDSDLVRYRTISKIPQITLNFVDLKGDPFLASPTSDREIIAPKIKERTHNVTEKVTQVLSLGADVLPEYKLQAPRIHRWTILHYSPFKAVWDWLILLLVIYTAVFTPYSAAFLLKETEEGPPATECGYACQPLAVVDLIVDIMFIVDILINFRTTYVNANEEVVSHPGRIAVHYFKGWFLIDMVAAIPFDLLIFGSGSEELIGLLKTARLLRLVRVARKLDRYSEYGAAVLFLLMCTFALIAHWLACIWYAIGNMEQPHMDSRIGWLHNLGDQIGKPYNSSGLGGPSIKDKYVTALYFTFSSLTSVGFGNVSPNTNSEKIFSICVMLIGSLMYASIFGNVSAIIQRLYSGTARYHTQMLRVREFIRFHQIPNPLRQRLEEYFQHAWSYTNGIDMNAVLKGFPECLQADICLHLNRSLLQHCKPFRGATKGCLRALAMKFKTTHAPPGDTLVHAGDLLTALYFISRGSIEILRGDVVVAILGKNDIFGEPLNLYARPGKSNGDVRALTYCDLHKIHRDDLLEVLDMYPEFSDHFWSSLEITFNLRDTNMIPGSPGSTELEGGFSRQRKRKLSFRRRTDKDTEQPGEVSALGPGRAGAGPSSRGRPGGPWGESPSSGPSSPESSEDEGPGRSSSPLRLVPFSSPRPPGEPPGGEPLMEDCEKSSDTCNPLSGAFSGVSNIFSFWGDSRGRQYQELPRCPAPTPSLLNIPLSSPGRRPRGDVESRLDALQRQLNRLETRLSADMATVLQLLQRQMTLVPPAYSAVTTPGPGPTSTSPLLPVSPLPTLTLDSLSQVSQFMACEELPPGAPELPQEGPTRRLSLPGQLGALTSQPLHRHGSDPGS

Row | Structure (SMILES) | hERG current change (%, negative = inhibition) at 1uM
1 | O=S(=O)(c1ccccc1)N1CCN(c2nc3ccccc3s2)CC1 | 12.9%
2 | CCC(C)(C)NC(=O)C(c1ccc(OC)cc1)N(C(=O)CCC(=O)Nc1cc(C)on1)c1cccc(F)c1 (stereo not drawn) | 5.55%
3 | Nc1nc(SCC(=O)c2c(N)n(Cc3ccccc3)c(=O)[nH]c2=O)n[nH]1 | -1.49%
4 | COc1ccc(N2C(=O)c3ccccc3NC23CCCCC3)cc1 | 12.4%
5 | O=C(COc1ccccc1)NC(=S)N1CCc2ccccc21 | 10.7%
6 | CCN(CC)S(=O)(=O)c1ccc(N2CCN(c3ccccc3O)CC2)nc1 | -14.8%
7 | CCc1ccc(Nc2n[n+](-c3ccccc3)c(-c3ccc(OCc4ccccc4)cc3)s2)cc1.[Cl-] | -7.79%
8 | O=C(O)c1ccc(N2C(=O)CC(N3CCN(c4ccc(Cl)cc4)CC3)C2=O)cc1 (stereo not drawn) | 10.7%
9 | Fc1ccccc1Nc1nc(NCc2ccco2)nc(N2CCOCC2)n1 | 3.58%
10 | Cc1cccnc1NC1CCCCC1 | 12.2%
11 | CCOC(=O)c1nn(-c2ccc(OCC)cc2)c2nc(CC(C)C)c(C#N)c(=O)n12 | 1.7%
12 | O=C(CCl)c1cc2c3c(c1)CC(=O)N3CCC2 | 17.9%
13 | Cc1cc(=O)n2[nH]c(SCc3ccccc3Cl)nc2n1 | 14.7%
14 | CC(C)CC(=O)Nc1ccc(C(=O)COC(=O)C2CCC2)cc1 | 12.9%
15 | Cc1cnc(NC(=O)CSc2nc3ccccc3s2)s1 | 5.3%
16 | Cc1ccc2cc(C)c3nnc(SCC(=O)N4CCCc5ccccc54)n3c2c1C | -4.79%
17 | CCOC(=O)C1=C(CC)Nc2ccccc2N=C1NC(=O)c1ccc(S(=O)(=O)N2CCOCC2)cc1 | 11.2%
18 | CCCOC(=O)c1ccc(NC(=O)Oc2ccccc2)cc1 | 3.97%
19 | COC(=O)C1=C(c2ccc(C(C)=O)cc2)C[C@@H]2CC[C@H]1N2C(=O)NC1Cc2ccccc2C1 | 6.19%
20 | O=C(/C=C/c1cccs1)NCc1ccc2c(c1)OCO2 | 5.45%
21 | COc1ccc(C(NC(=O)C2CCCCC2)c2c(O)ccc3ccccc23)cc1 (stereo not drawn) | 8.75%
22 | Cc1[nH]c(C)c(S(=O)(=O)N2CCCCC2C)c1C(=O)N1CCCC1 (stereo not drawn) | 17.4%

Row | Structure (SMILES) | hERG current change (%, negative = inhibition) at 1uM
23 | COc1cccc(NC(=O)CN(C)C(=O)c2cc3c(s2)CCC(C)C3)c1 (stereo not drawn) | 15.7%
24 | O=C(/C=C/c1ccccc1[N+](=O)[O-])OC1CCCCC1=O (stereo not drawn) | 17.1%
25 | Cc1ccc(-c2nnc(NC(=O)CCS(=O)(=O)c3ccc(F)cc3)o2)c(C)c1 | -3.88%
26 | COc1ccc(CCNC(=O)c2ccc3nc[nH]c3c2)cc1 | 17.1%
27 | O=C(NCCc1csc(-c2cccnc2)n1)c1cccs1 | 0.779%
28 | COc1ccc(N(CC(=O)NC2CCCC2)C(=O)Cn2nnc(-c3ccc(C)cc3)n2)cc1 | -4.61%
29 | OCC[C@H]1C[C@@H](O)[C@H](O)[C@]2(CCCc3ccccc3O2)O1 | 11.5%
30 | CCSC(C)CC1C/C(=N/O)c2c(CC)noc2C1 (stereo not drawn) | 1.16%
31 | COc1cc(CNc2ncnc3c2[nH]c2ccc(C)cc23)cc(OC)c1 | 9.57%
32 | COC(=O)C(C)Sc1nc2c(c(-c3ccc(OC)cc3)c1C#N)-c1ccccc1C2=O (stereo not drawn) | 12.5%
33 | O=C(CCN1C(=O)c2ccc([N+](=O)[O-])cc2C1=O)Nc1ccccc1C(=O)O | 13.7%
34 | C[C@H](NC(=O)N1C[C@H]2C[C@@H](C1)c1cccc(=O)n1C2)C(=O)Nc1cccc(F)c1 | 0.353%
35 | COCCN(C(=S)Nc1ccc(OC)c(Cl)c1)C1CCN(C(C)C)CC1 | -9.56%
36 | COc1ccc(N2CCN(C(=O)C3CCCN3S(=O)(=O)c3cccc4nsnc34)CC2)cc1 (stereo not drawn) | 10.3%
37 | O=C(c1n[nH]c2ccccc12)N1CCN(c2ccc(F)cc2)CC1 | 1.36%
38 | Cc1ccc(S(=O)(=O)Cn2nnnc2CN2CCN(C(=O)c3ccco3)CC2)cc1 | -4.51%
39 | Cc1nn(C)cc1/C=N/NC(=O)CSc1ccccn1 | 16.5%
40 | CCN1C(=O)[C@H]2[C@@H](c3ccc(-c4ccc(Cl)c(Cl)c4)c(OC)c3)N[C@@](C)(C(=O)OC)[C@H]2C1=O.O=C(O)C(F)(F)F | 12.1%
41 | CCOc1ccc(OCC)c(NC(=O)CN2CCN(CC(=O)NC(C)C)CC2)c1.Cl | 19.1%
42 | COc1ccc(NC(=O)C2CCN(c3ncnc4c3nc3n4CCCCC3)CC2)c(OC)c1 | 1.93%
43 | CCN(CC)S(=O)(=O)c1ccc(NC(=O)CSc2nnc(-c3ccc(F)cc3)o2)cc1 | 11.9%
44 | O=[N+]([O-])c1ccccc1CNCCCCO | 5.46%

Row | Structure (SMILES) | hERG current change (%, negative = inhibition) at 1uM
45 | CN(C)S(=O)(=O)c1ccc(Cl)c(NC(=O)CN2CCc3ccccc3C2)c1 | 15.2%
46 | Cc1c(N)cc(N)cc1C(=O)O | 11.3%
47 | COc1ccc2[nH]c(C(=O)NCc3ccccc3)c(C)c2c1.Cl | 10.3%
48 | Cc1cc2oc(C(=O)N(Cc3ccccc3)C3CCS(=O)(=O)C3)cc(=O)c2cc1Cl (stereo not drawn) | 11.4%
49 | CCOc1ccccc1NC(=O)Nc1cc(C(=O)O)ccc1C | 12%
50 | COC(=O)CCCCC1SCC(NC(=O)OC)C1NC(=O)OC (stereo not drawn) | 10.9%
51 | COc1ccc(Nc2ccc(N3C(=O)CC(C)C3=O)cc2[N+](=O)[O-])cc1OC (stereo not drawn) | 7.09%
52 | O=C(NC(=S)NC1CC1)c1cccnc1 | 8.98%
53 | Cc1cc(C)nc(Nc2n[nH]c(C)n2)n1 | 10.2%
54 | CC(=Nc1ccccc1)C1=C(O)CC(C)(C)CC1=O | 11.8%
55 | CC1CCN(C(=O)c2ccc(S(=O)(=O)Cc3cccc(F)c3)c([N+](=O)[O-])c2)CC1 | 11.7%
56 | Cc1cccc(C)c1Nc1c(-c2ccsc2)nc2ncccn12 | 1%
57 | Cc1ccc(S(=O)(=O)N(C(=O)c2ccco2)c2cc3sc(=O)oc3c3ccccc23)cc1 | 5.71%
58 | O=C(NCc1ccncc1)c1ccc(OCc2ccccc2)cc1 | 7.47%
59 | Cc1cccc(C(C)C)c1NC(=O)c1ccc(CN(c2ccccc2)S(=O)(=O)c2ccccc2)cc1 | 7.45%
60 | O=C(CSc1nncn1-c1ccccc1)NC1CCCC1 | 1.06%
61 | COc1ccccc1CCNC(=O)c1ccc(NC(=O)CC2SC(N3CCCC3)=NC2=O)cc1 (stereo not drawn) | 16%
62 | COc1ccc(C2C(C(C)=O)=C(O)C(=O)N2c2cccnc2)c(OC)c1 (stereo not drawn) | 5.88%
63 | O=C(Cc1ccccc1)Nc1c(C(=O)N2CCCCCC2)cnn1-c1ccccc1 | 16.4%
64 | C=CCNc1cccc(Br)c1 | 12.5%
65 | CNS(=O)(=O)c1ccc(CCC(=O)N2CCN(c3ccccc3OC)CC2)cc1 | 11.9%
66 | Cc1noc(C)c1S(=O)(=O)Nc1ccc(C(=O)N2CCN(c3ccc(F)cc3)CC2)cc1 | 2.44%

Row | Structure (SMILES) | hERG current change (%, negative = inhibition) at 1uM
67 | Cn1c(=O)[nH]c(=O)c2cc(C(=O)c3cc(F)ccc3O)cnc21 | 15.1%
68 | CC(NC(=O)c1cc(=O)[nH]c2ccccc12)c1ccc(F)cc1F (stereo not drawn) | 17.9%
69 | CCOC(=O)[C@H]1[C@H]2COc3ccc(C)cc3[C@@H]2N2C(=O)c3ccc(F)cc3NC(=O)[C@@]12C | -1.08%
70 | O=C(Nc1cccc(F)c1)c1ccc(S(=O)(=O)N2CCCC2)cc1 | 2.32%
71 | COCCCNC(=O)Cn1ccc(NC(=O)OCc2ccccc2)nc1=O | 9.66%
72 | O=C(O)CCCC(=O)NCCCCc1ccccc1 | 10.8%
73 | Cc1ccc(C(=O)CN2C(=O)NC3(CCc4ccccc43)C2=O)s1 (stereo not drawn) | 8.48%
74 | O=C1C(SC(F)(F)C(F)F)=C(C(F)(F)F)OC2C3C=CC(C3)C12 (stereo not drawn) | 9.97%
75 | CC(=O)c1cccc(S(=O)(=O)Nc2ccc3nc(C)sc3c2)c1 | 7.97%
76 | CCCC(=O)N(Cc1cc(=O)[nH]c2ccccc12)c1ccc(C)cc1 | 5.97%
77 | O=C1/C(=C\c2cccnc2)N2CCC1CC2 | 14.9%
78 | O=C(Oc1ccc(-n2cnnn2)cc1)c1ccco1 | 8.16%
79 | Cc1ccc(S(=O)(=O)Nc2cccc(/C=C/C(=O)O)c2)cc1 | 17%
80 | O=C(O)CCN1C(=O)/C(=C2\C(=O)N(Cc3ccc(F)cc3)c3ccccc32)SC1=S | 22.2%
81 | COc1cc(C)c(C(=O)CC(=O)c2c(C)cc(OC)cc2C)c(C)c1 | 8.11%
82 | COc1ccccc1C(=O)NC(CCSC)C(=O)NCC(c1ccco1)N(C)C (stereo not drawn) | -12.3%
83 | O=C(O)c1cc(Cl)c(Cl)cc1C(=O)NCc1ccco1 | 16.4%
84 | CCCCNC(=O)CSc1nc(CCC)nc2ccccc12 | 16.7%
85 | Cc1nc2ccccc2nc(C)c1=NOCc1ccccc1Cl | 6.22%
86 | COc1ccc(Nc2nc(Cl)nc(NCc3ccco3)n2)c(OC)c1 | 14.2%
87 | CC(C)OC(=O)C1C(=O)CC(C)(O)C(C(=O)OC(C)C)C1c1ccc(F)cc1 (stereo not drawn) | 9.57%
